# The other results are listed elsewhere or left out.
# Target: T1, OsWOX13 (Oryza sativa, UniProt Q5QMM3 1-267)
# T1 sequence: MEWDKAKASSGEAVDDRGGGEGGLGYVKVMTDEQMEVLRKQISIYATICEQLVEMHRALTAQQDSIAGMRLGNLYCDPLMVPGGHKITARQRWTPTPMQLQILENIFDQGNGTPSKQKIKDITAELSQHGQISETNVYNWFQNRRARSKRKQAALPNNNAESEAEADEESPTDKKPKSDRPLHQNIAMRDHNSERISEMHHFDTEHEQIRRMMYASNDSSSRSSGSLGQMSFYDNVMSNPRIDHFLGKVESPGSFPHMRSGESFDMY
# Experiment: protein-binding microarray (RPBM); PBS, 2% BSA, 51.3 ng/ul salmon testes DNA, 50 uM zinc acetate, 200 nM TF, 25 C, 1 h; high values mean tight binding
# Conditions: protein: recombinant; tags: N-terminal polyhistidine and DsRed monomer fusion (pET32a); label: CyDye5-dUTP incorporated in the synthesized complementary strand; 3' TTTTT single-stranded linker to array surface; dsDNA, one strand shown
# Summary of the method: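 Transcription factors were each fused at the N-terminus to a polyhistidine tag plus DsRed and expressed in E. coli BL21-CodonPlus before Ni–NTA purification. Binding to a double-stranded custom Agilent array was carried out with 200 nM protein at 25 °C for 1 h in PBS, 2% BSA, salmon testes DNA and 50 µM zinc acetate. The binding signal is per-feature fluorescence intensity, in arbitrary units, on an Axon 4000B scanner.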
row,Sequence,binding signal
1,AGTTGACACTTGACAGCGACAAATTGCTGAGACGCGATTACGGAGTCACCTAGTGCAG,9260 fluorescence intensity (a.u.)
2,TTGTGATAATGAAGACACTAAACCTATAGTTTTGTGATAACGGAGTCACCTAGTGCAG,13200 fluorescence intensity (a.u.)
3,GGGGACTATTCAAATTGATGTTATTTTCAACCATATTATTCGGAGTCACCTAGTGCAG,7030 fluorescence intensity (a.u.)
4,TTTAATTAAATACTACTTCCTCCGTATTTTAATGTATGACCGGAGTCACCTAGTGCAG,24900 fluorescence intensity (a.u.)
5,GAAATTTGAATAAGATGTGATTAATGGGATAAGTAGTACTCGGAGTCACCTAGTGCAG,7210 fluorescence intensity (a.u.)
6,TGCTTATCTAAATTGTAACATATTATTTTGAGTTGGTGACCGGAGTCACCTAGTGCAG,3590 fluorescence intensity (a.u.)
7,CACTGCTAGATCTTGTTCAATCATTGGAATCTAATATTTTCGGAGTCACCTAGTGCAG,3810 fluorescence intensity (a.u.)
8,CCGTGACAAGTGACTCAAATATGTTTCTTTTATTCCATTTCGGAGTCACCTAGTGCAG,3560 fluorescence intensity (a.u.)
9,TGTTAACTGTCGATGATGATGAGTTCTGGGAAGGAGTTTTCGGAGTCACCTAGTGCAG,15400 fluorescence intensity (a.u.)
10,ATAGTTAAATTGCCCCTCACAACACCACCTGTCGCTGATTCGGAGTCACCTAGTGCAG,6860 fluorescence intensity (a.u.)
11,GGCTAATTAAGGAGATGCTAAATATAGGTTAAATCAAGGACGGAGTCACCTAGTGCAG,25100 fluorescence intensity (a.u.)
12,TTCATAACCAATCAACCATAATGTTATTCGGATCCCTAGACGGAGTCACCTAGTGCAG,16800 fluorescence intensity (a.u.)
13,TATAATTAAGATGACACTAACCATGGTTAACTAACCCAACCGGAGTCACCTAGTGCAG,20900 fluorescence intensity (a.u.)
14,GTAGATAATTAAATCGGATTAGCATTAGATAATCAAGCAACGGAGTCACCTAGTGCAG,37000 fluorescence intensity (a.u.)
15,CTAAAAGTAATTAAGACATATCATAAAAGTAATTTGTGATCGGAGTCACCTAGTGCAG,9010 fluorescence intensity (a.u.)
16,GTTAGTGATTGAACCATAGACTTTACAACTTCCTAAGATCCGGAGTCACCTAGTGCAG,30700 fluorescence intensity (a.u.)
17,TTCATAATTAGCACATGTTTACTGTGGTATCACATGGACTCGGAGTCACCTAGTGCAG,25200 fluorescence intensity (a.u.)
18,CCTTAATTTATCTTAGCTACTAGCGATACTTTAATCCCTACGGAGTCACCTAGTGCAG,40500 fluorescence intensity (a.u.)
19,ATCTACACGACCTTTCTGATTGAGGAGACAAAAGTTTTCACGGAGTCACCTAGTGCAG,7810 fluorescence intensity (a.u.)
20,GAAAAGTCAATAATCTAGATTGACCTCGTCGTCTTGGGCCCGGAGTCACCTAGTGCAG,15300 fluorescence intensity (a.u.)
21,TCGTAATATTATGATGCATTGACATCAAGTAATAGGTTAGCGGAGTCACCTAGTGCAG,3750 fluorescence intensity (a.u.)
22,CCCAATCACTCCCGCACATCACTGACACGTGGGCCCCACGCGGAGTCACCTAGTGCAG,7230 fluorescence intensity (a.u.)
23,TTTATTGACAAAATTTGCTACAGAAAATCCAGATTTTGTGCGGAGTCACCTAGTGCAG,24800 fluorescence intensity (a.u.)
